{
  "source": "the supplement of paper PMC4466236",
  "note": "The full ranking holds about 33,000 sequences; the median of “E-score (dimensionless, -0.5 to 0.5)” is about -0.058, and the highest 2% start at about 0.35. The list shows a part of the results.",
  "data": [
    {"system": "MvaT", "assay": "PBM 8-mer E-score (mean of HK and ME arrays) (E-score (dimensionless, -0.5 to 0.5)); higher = stronger relative binding preference; most listed sequences are background and not binding sites", "procedure,_shortened": "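Full-length P. aeruginosa MvaT carrying an N-terminal glutathione S-transferase tag was tested by protein binding microarray following a previously described protocol. Two universal double-stranded 60-mer arrays, ME and HK, were used, each with a constant 25-mer primer region and a variable 35-mer region covering all 8-mers. The rank-based E-score is the mean of the two arrays, parsed with a custom script. Its range runs from -0.5 to 0.5 for each 8-mer.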", "values": [
      {"sequence": "AACGGTCC", "PBM 8-mer E-score": -0.227},
      {"sequence": "AAACAAGC", "PBM 8-mer E-score": 0.0442},
      {"sequence": "ACCTGCCC", "PBM 8-mer E-score": -0.278},
      {"sequence": "AATGCCAA", "PBM 8-mer E-score": -0.0795},
      {"sequence": "CGCTCACC", "PBM 8-mer E-score": -0.263},
      {"sequence": "GCTATACC", "PBM 8-mer E-score": -0.136},
      {"sequence": "AGCACCTG", "PBM 8-mer E-score": -0.224},
      {"sequence": "AGCTTACC", "PBM 8-mer E-score": -0.0727},
      {"sequence": "CCATCATA", "PBM 8-mer E-score": 0.133},
      {"sequence": "GAGGTGAC", "PBM 8-mer E-score": -0.237},
      {"sequence": "CGGAATGC", "PBM 8-mer E-score": -0.157},
      {"sequence": "ACGTCACG", "PBM 8-mer E-score": -0.125},
      {"sequence": "AATGGCCC", "PBM 8-mer E-score": -0.0995},
      {"sequence": "GAGTGTCC", "PBM 8-mer E-score": -0.191},
      {"sequence": "AATAACCT", "PBM 8-mer E-score": 0.228},
      {"sequence": "AGGCATAC", "PBM 8-mer E-score": 0.0369},
      {"sequence": "ACATTCAA", "PBM 8-mer E-score": 0.146},
      {"sequence": "ACTCAGAA", "PBM 8-mer E-score": 0.00761},
      {"sequence": "AGGTTAAT", "PBM 8-mer E-score": 0.164},
      {"sequence": "AACGAGGG", "PBM 8-mer E-score": -0.321},
      {"sequence": "CTTATCTC", "PBM 8-mer E-score": 0.00961},
      {"sequence": "CAGACCTG", "PBM 8-mer E-score": -0.192},
      {"sequence": "GAGACAAC", "PBM 8-mer E-score": -0.128},
      {"sequence": "AAAGCAGT", "PBM 8-mer E-score": 0.00971},
      {"sequence": "AGGATTAG", "PBM 8-mer E-score": -0.157},
      {"sequence": "AAGGTGCG", "PBM 8-mer E-score": -0.187},
      {"sequence": "CCGGGACA", "PBM 8-mer E-score": -0.176},
      {"sequence": "GCTGTACC", "PBM 8-mer E-score": -0.139},
      {"sequence": "GGTCGTAA", "PBM 8-mer E-score": -0.0429},
      {"sequence": "ACTCTCTG", "PBM 8-mer E-score": -0.0379},
      {"sequence": "ATTTGTTC", "PBM 8-mer E-score": 0.206},
      {"sequence": "CGCACGCC", "PBM 8-mer E-score": -0.277},
      {"sequence": "ATCCGATA", "PBM 8-mer E-score": 0.0518},
      {"sequence": "GGGTATCA", "PBM 8-mer E-score": -0.0926},
      {"sequence": "CACGACAA", "PBM 8-mer E-score": -0.107},
      {"sequence": "CTCCCCTC", "PBM 8-mer E-score": -0.281},
      {"sequence": "AAGTACAA", "PBM 8-mer E-score": 0.278},
      {"sequence": "AGAGGACT", "PBM 8-mer E-score": -0.116},
      {"sequence": "AGGTTTAC", "PBM 8-mer E-score": 0.0368},
      {"sequence": "GACGTGTA", "PBM 8-mer E-score": 0.037},
      {"sequence": "AACACGAA", "PBM 8-mer E-score": 0.0234},
      {"sequence": "CTCCCGGA", "PBM 8-mer E-score": -0.00501},
      {"sequence": "AAGATGCG", "PBM 8-mer E-score": -0.0218},
      {"sequence": "CTCTTTTC", "PBM 8-mer E-score": 0.0776},
      {"sequence": "CTGAGAAA", "PBM 8-mer E-score": 0.0752},
      {"sequence": "CTATGAAC", "PBM 8-mer E-score": -0.0591},
      {"sequence": "GAAGGCTA", "PBM 8-mer E-score": -0.222},
      {"sequence": "AGTAGTCA", "PBM 8-mer E-score": 0.0445},
      {"sequence": "CGGATCCA", "PBM 8-mer E-score": -0.213},
      {"sequence": "GCTGAAAA", "PBM 8-mer E-score": 0.118},
      {"sequence": "AACACCAC", "PBM 8-mer E-score": -0.0122},
      {"sequence": "AAAGACCC", "PBM 8-mer E-score": -0.224},
      {"sequence": "ATCAGCAA", "PBM 8-mer E-score": -0.103},
      {"sequence": "ATGCTTGA", "PBM 8-mer E-score": 0.0424},
      {"sequence": "ACTGGAGA", "PBM 8-mer E-score": -0.108},
      {"sequence": "ATCACAAG", "PBM 8-mer E-score": -0.0473},
      {"sequence": "TCGATCCA", "PBM 8-mer E-score": -0.213},
      {"sequence": "ATGCGCGA", "PBM 8-mer E-score": -0.0161},
      {"sequence": "TATAACCA", "PBM 8-mer E-score": 0.318},
      {"sequence": "CTAAAGTC", "PBM 8-mer E-score": 0.0796},
      {"sequence": "CCTGGAGC", "PBM 8-mer E-score": -0.0686},
      {"sequence": "ACTATTAC", "PBM 8-mer E-score": 0.32},
      {"sequence": "CATAGGCC", "PBM 8-mer E-score": -0.229},
      {"sequence": "CTACATAA", "PBM 8-mer E-score": 0.123},
      {"sequence": "GTTGCAAC", "PBM 8-mer E-score": 0.157},
      {"sequence": "ACGGCCGG", "PBM 8-mer E-score": -0.0486},
      {"sequence": "TAAGCGAA", "PBM 8-mer E-score": 0.0597},
      {"sequence": "AATCTTGC", "PBM 8-mer E-score": -0.098},
      {"sequence": "ACATTTGA", "PBM 8-mer E-score": 0.0624},
      {"sequence": "AAGAAACC", "PBM 8-mer E-score": 0.0106},
      {"sequence": "ACACGTTC", "PBM 8-mer E-score": -0.178},
      {"sequence": "TGACATCA", "PBM 8-mer E-score": -0.211},
      {"sequence": "ACCATCGA", "PBM 8-mer E-score": -0.169},
      {"sequence": "GTCAGCAA", "PBM 8-mer E-score": -0.0186},
      {"sequence": "AGCCATTA", "PBM 8-mer E-score": 0.0493},
      {"sequence": "AATGCCGG", "PBM 8-mer E-score": -0.0327},
      {"sequence": "TAATTAGA", "PBM 8-mer E-score": 0.353},
      {"sequence": "GCGATCAC", "PBM 8-mer E-score": -0.161},
      {"sequence": "AAAAATAT", "PBM 8-mer E-score": 0.377},
      {"sequence": "ACTCGCCC", "PBM 8-mer E-score": -0.141},
      {"sequence": "GGCTCAAA", "PBM 8-mer E-score": -0.00695},
      {"sequence": "CCAACCTC", "PBM 8-mer E-score": -0.181},
      {"sequence": "AGACCAAC", "PBM 8-mer E-score": -0.0497},
      {"sequence": "CAAGGATG", "PBM 8-mer E-score": -0.0011},
      {"sequence": "AAGAGCTA", "PBM 8-mer E-score": 0.102},
      {"sequence": "CTTGGCGA", "PBM 8-mer E-score": -0.121}
    ]}
  ]
}
